Article PMC10164576, “Interaction with the carboxy-terminal tip of SSB is critical for RecG function in E. coli” (Nucleic Acids Research, 2023)
Positions count from the first letter of the chain named. These are yes or no findings as the source states them, for the method shown. Some binding calls cover weakened binding; strength is not graded here.

Sequences of proteins named here, by UniProt entry; tags and fusion partners are left off.
UniProt P0AGE0: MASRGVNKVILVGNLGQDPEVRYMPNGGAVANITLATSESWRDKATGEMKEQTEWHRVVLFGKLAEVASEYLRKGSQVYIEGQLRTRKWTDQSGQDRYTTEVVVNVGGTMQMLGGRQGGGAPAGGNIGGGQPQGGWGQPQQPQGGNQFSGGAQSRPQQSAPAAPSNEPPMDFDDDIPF

Key:
Test in all cases: two-hybrid; Gal4 DNA-binding domain (pGBD) and activation domain (pGAD) fusions in S. cerevisiae pJ69-4a; growth on SD His- and Ade-deficient plates, 30°C, 4-5 days
[1] = target: T1, RecG R614E Gal4 hybrid (E. coli) (UniProt P24230)
T1 sequence: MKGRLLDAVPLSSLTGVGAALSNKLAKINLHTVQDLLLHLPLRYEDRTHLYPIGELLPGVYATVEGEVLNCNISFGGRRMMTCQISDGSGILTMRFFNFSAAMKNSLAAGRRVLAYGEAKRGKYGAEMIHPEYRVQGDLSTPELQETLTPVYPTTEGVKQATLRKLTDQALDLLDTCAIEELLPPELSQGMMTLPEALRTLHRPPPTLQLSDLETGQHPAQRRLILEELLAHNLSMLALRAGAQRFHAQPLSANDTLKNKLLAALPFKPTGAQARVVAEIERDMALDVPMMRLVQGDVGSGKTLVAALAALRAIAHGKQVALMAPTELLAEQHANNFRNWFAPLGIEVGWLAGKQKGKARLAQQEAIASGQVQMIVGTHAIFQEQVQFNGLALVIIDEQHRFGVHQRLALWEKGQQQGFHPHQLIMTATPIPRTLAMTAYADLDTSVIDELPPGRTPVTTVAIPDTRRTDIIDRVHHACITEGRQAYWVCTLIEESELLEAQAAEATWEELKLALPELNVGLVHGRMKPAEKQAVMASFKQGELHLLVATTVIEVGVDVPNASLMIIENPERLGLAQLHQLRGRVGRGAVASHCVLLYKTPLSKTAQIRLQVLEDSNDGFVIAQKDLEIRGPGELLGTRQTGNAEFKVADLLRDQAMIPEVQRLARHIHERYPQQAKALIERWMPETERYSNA

[2] = target: T2, RecG F97D Gal4 hybrid (E. coli) (UniProt P24230)
T2 sequence: T1 sequence with F97D, E614R

[3] = target: T3, RecG R484E Gal4 hybrid (E. coli) (UniProt P24230)
T3 sequence: T1 sequence with R484E, E614R

Substance: SSB Gal4 hybrid (from UniProt P0AGE0 1-178)
- binding [1]: no binding
- binding [2]: binds
- binding [3]: binds
